Measurements from PMC7794930.
These are yes or no findings as the source states them, for the method shown. In cells and extracts the contact can be indirect. Some entries that bind do so weakly or less than the wild type. Tags and fused reporters may be left off the sequences shown. One block for each binder: values may come before it.

What was measured:
[1] = target: T1, Sec21-GFP (COPI coat subunit Sec21, yeast γ-COP, tagged with GFP) (S. cerevisiae) (UniProt P32074); test: co-IP; native co-IP of GFP- or CFP-tagged bait with GFP-Trap_A (3 h, 4 °C) from S13 enriched-Golgi fraction solubilized with 1% Triton X-100 in HEPES buffer (20 mM HEPES pH 7.2, 100 mM KCl, 5 mM MgCl2); immunoblot; wild-type, emp24Δ, or erg6Δ cells with or without 100 µg/mL BFA
T1 sequence: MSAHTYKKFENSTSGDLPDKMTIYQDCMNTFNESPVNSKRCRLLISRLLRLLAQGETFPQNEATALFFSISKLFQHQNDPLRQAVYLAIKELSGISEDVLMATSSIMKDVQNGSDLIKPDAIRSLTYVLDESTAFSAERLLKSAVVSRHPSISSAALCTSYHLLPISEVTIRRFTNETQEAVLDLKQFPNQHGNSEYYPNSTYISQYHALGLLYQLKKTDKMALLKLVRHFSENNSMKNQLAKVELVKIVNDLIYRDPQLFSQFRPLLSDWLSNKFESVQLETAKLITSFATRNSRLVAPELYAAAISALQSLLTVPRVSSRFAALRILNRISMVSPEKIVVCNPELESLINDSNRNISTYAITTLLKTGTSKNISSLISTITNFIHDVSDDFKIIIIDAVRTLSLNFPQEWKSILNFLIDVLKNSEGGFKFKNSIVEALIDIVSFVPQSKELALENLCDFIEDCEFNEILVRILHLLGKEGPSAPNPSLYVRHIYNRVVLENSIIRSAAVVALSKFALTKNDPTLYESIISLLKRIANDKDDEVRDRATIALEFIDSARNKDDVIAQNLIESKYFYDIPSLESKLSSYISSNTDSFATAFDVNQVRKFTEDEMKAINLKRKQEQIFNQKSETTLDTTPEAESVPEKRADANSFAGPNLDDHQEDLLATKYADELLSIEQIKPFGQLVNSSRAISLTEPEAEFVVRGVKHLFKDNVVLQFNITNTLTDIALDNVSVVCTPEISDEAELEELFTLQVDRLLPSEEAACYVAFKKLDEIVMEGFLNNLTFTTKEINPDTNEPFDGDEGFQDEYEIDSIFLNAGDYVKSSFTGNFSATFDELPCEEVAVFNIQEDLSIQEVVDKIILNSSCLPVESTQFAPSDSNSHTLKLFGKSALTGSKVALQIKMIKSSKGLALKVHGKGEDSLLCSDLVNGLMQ

[2] = target: T1, Sec21-GFP (COPI coat subunit Sec21, yeast γ-COP, tagged with GFP) (S. cerevisiae); test: co-IP; total lysate and S13, P13, S100 and P100 fractions of differential centrifugation, each immunoprecipitated for Sec21-GFP and blotted for HA
[3] = target: T2, Emp24-CFP (p24 complex subunit) (S. cerevisiae) (UniProt P32803); test: co-IP; native co-IP of GFP- or CFP-tagged bait with GFP-Trap_A (3 h, 4 °C) from S13 enriched-Golgi fraction solubilized with 1% Triton X-100 in HEPES buffer (20 mM HEPES pH 7.2, 100 mM KCl, 5 mM MgCl2); immunoblot; wild-type, emp24Δ, or erg6Δ cells with or without 100 µg/mL BFA
T2 sequence: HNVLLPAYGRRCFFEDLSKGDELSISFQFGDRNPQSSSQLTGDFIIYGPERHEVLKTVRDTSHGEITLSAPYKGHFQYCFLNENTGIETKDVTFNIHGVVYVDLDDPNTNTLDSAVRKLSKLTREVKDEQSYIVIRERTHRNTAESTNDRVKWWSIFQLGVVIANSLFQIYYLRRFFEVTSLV

B1: Emp24 (endogenous, p24 complex subunit) (protein, UniProt P32803 21-203)
chain: T2 sequence
binding [1]: binds

B2: HA-Gea1 (full-length, 5xHA-GEA1) (protein, UniProt P47102 1-1408)
chain: MHDVPMETVLAVNPATMIVKECINLCSAMNKQSRDKSQTSVAALLGGGSDIFLSQSDSFVDSFHNLPTSSYHDPLISGLVQLRLKINDLKGLDSLNALELLKPFLEIVSASSVSGYTTSLALDSLQKVFTLKIINKTFNDIQIAVRETVVALTHCRFEASKQISDDSVLLKVVTLLRDIITSSFGDYLSDTIIYDVLQTTLSLACNTQRSEVLRKTAEVTIAGITVKLFTKLKLLDPPTKTEKYINDESYTDNNLKDDIIGTTTSDNDLSSTDDDSAVADDNKNEKPVQQVIREQENDEETAEKAENVEPNYGITVIKDYLGLLLSLVMPENRMKHTTSAMKLSLQLINAAIEISGDKFPLYPRLFSLISDPIFKSVLFIIQSSTQYSLLQATLQLFTSLVVILGDYLPMQIELTLRRIFEILEDTTISGDVSKQKPPAIRELIIEQLSILWIHSPAFFLQLFVNFDCNLDRSDLSIDFIKELTKFSLPAAAVNTSNNIPPICLEGVLSLIENIYNDLQRFDRAEFVKNQKEIDILKQRDRKTEFILCVETFNEKAKKGIQMLIEKGFIDSDSNRDIASFLFLNNGRLNKKTIGLLLCDPKKTSLLKEFIDLFDFKGLRVDEAIRILLTKFRLPGESQQIERIVEAFSSKYSADQSNDKVELEDKKAGKNGSESMTEDDIIHVQPDADSVFVLSYSIIMLNTDSHNPQVKDHMTFDDYSNNLRGCYNGKDFPRWYLHKIYTSIKVKEIVMPEEHHGNERWFEDAWNNLISSTSVMTEMQRDFTNPISKLAQIDILQYEKAIFSNVRDIILKTLFKIFTVASSDQISLRILDAISKCTFINYYFSFDQSYNDTVLHLGEMTTLAQSSAKAVELDVDSIPLVEIFVEDTGSKISVSNQSIRLGQNFKAQLCTVLYFQIIKEISDPSIVSTRLWNQIVQLILKLFENLLMEPNLPFFTNFHSLLKLPELPLPDPDISIRKAKMSRSLLSTFASYLKGDEEPSEEDIDFSIKAFECVKASHPLSSVFENNQLVSPKMIETLLSSLVIEKTSENSPYFEQELLFLLEISIILISEASYGQEFGALIADHMINISNLDGLSKEAIARLASYKMFLVSRFDNPRDILSDLIEHDFLVKNEIFNTKYYESEWGKQVINDLFTHLNDVKYNERALKNVKFWNFLRILISAKDRQFAVYTFLEKYIQNGDIFVDDGNFMNILSLLDEMSCAGAVGTKWEQNYENSVEDGCEAPESNPYRSIIDLSSRSINITADLLSTVGRSNSALNKNEIIAAIQGLAHQCLNPCDELGMQALQALENILLSRASQLRTEKVAVDNLLETGLLPIFELDEIQDVKMKRITSILSVLSKIFLGQLVEGVTSNETFLRVLNVFNKYVDDPTVERQLQELIISKREIEKE
binding [2]: binds | binding [1]: binds

Results, then the binder that gave them:

binding [3]: no binding
B3: Pgk1 (protein, UniProt P00560 1-416)
chain: MSLSSKLSVQDLDLKDKRVFIRVDFNVPLDGKKITSNQRIVAALPTIKYVLEHHPRYVVLASHLGRPNGERNEKYSLAPVAKELQSLLGKDVTFLNDCVGPEVEAAVKASAPGSVILLENLRYHIEEEGSRKVDGQKVKASKEDVQKFRHELSSLADVYINDAFGTAHRAHSSMVGFDLPQRAAGFLLEKELKYFGKALENPTRPFLAILGGAKVADKIQLIDNLLDKVDSIIIGGGMAFTFKKVLENTEIGDSIFDKAGAEIVPKLMEKAKAKGVEVVLPVDFIIADAFSADANTKTVTDKEGIPAGWQGLDNGPESRKLFAATVAKAKTIVWNGPPGVFEFEKFAAGTKALLDEVVKSSAAGNTVIIGGGDTATVAKKYGVTDKISHVSTGGGASLELLEGKELPGVAFLSEKK

binding [1]: binds
B4: HA-Gea1ΔCOPI (HA-Gea1 lacking residues 434–521) (protein, UniProt P47102)
chain: MHDVPMETVLAVNPATMIVKECINLCSAMNKQSRDKSQTSVAALLGGGSDIFLSQSDSFVDSFHNLPTSSYHDPLISGLVQLRLKINDLKGLDSLNALELLKPFLEIVSASSVSGYTTSLALDSLQKVFTLKIINKTFNDIQIAVRETVVALTHCRFEASKQISDDSVLLKVVTLLRDIITSSFGDYLSDTIIYDVLQTTLSLACNTQRSEVLRKTAEVTIAGITVKLFTKLKLLDPPTKTEKYINDESYTDNNLKDDIIGTTTSDNDLSSTDDDSAVADDNKNEKPVQQVIREQENDEETAEKAENVEPNYGITVIKDYLGLLLSLVMPENRMKHTTSAMKLSLQLINAAIEISGDKFPLYPRLFSLISDPIFKSVLFIIQSSTQYSLLQATLQLFTSLVVILGDYLPMQIELTLRRIFEILEDTTISGDVSDRAEFVKNQKEIDILKQRDRKTEFILCVETFNEKAKKGIQMLIEKGFIDSDSNRDIASFLFLNNGRLNKKTIGLLLCDPKKTSLLKEFIDLFDFKGLRVDEAIRILLTKFRLPGESQQIERIVEAFSSKYSADQSNDKVELEDKKAGKNGSESMTEDDIIHVQPDADSVFVLSYSIIMLNTDSHNPQVKDHMTFDDYSNNLRGCYNGKDFPRWYLHKIYTSIKVKEIVMPEEHHGNERWFEDAWNNLISSTSVMTEMQRDFTNPISKLAQIDILQYEKAIFSNVRDIILKTLFKIFTVASSDQISLRILDAISKCTFINYYFSFDQSYNDTVLHLGEMTTLAQSSAKAVELDVDSIPLVEIFVEDTGSKISVSNQSIRLGQNFKAQLCTVLYFQIIKEISDPSIVSTRLWNQIVQLILKLFENLLMEPNLPFFTNFHSLLKLPELPLPDPDISIRKAKMSRSLLSTFASYLKGDEEPSEEDIDFSIKAFECVKASHPLSSVFENNQLVSPKMIETLLSSLVIEKTSENSPYFEQELLFLLEISIILISEASYGQEFGALIADHMINISNLDGLSKEAIARLASYKMFLVSRFDNPRDILSDLIEHDFLVKNEIFNTKYYESEWGKQVINDLFTHLNDVKYNERALKNVKFWNFLRILISAKDRQFAVYTFLEKYIQNGDIFVDDGNFMNILSLLDEMSCAGAVGTKWEQNYENSVEDGCEAPESNPYRSIIDLSSRSINITADLLSTVGRSNSALNKNEIIAAIQGLAHQCLNPCDELGMQALQALENILLSRASQLRTEKVAVDNLLETGLLPIFELDEIQDVKMKRITSILSVLSKIFLGQLVEGVTSNETFLRVLNVFNKYVDDPTVERQLQELIISKREIEKE
